The assay relates to NCI-H322M lung. The assay is described as follows: NCI-60 cell line screen, 48 h.

Where “and” joins values, the source holds several entries; their conditions need not be identical. Identical values can stand only once.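 In this assay, cells in 96-well plates receive the compound at five concentrations for 48 hours. Endpoints are linearly interpolated between the surrounding concentrations. The concentration for 50% growth inhibition is given as GI50. Definition used: TGI = concentration required for complete inhibition of growth.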

Consider `CC1(C)CC(=O)C2=C(C1)NC(=S)C(C#N)C2c1ccccc1` (stereo unspecified), for which the TGI was greater than 100 µM.

For `CCCC(=O)Nc1cc(/C=C/C(=O)N2C[C@@H]3C[C@]34C2=CC(=O)c2[nH]cc(C)c24)n(C)c1`, the GI50 is 0.281 µM.

For `CCN(CC)CC[n+]1ccc2c(C)c3[nH]c4ccccc4c3c(C)c2c1`, the TGI was 3.15 µM and 5.54 µM and 5.44 µM.

For `COc1ccc(N=c2nc3sc4cc(Cl)ccc4n3c(N)c2C#N)cc1`, the GI50 was 4.39 µM and the TGI is greater than 100 µM.

With `C=C(CN1CCN(c2ccccn2)CC1)c1ccc(C(=O)Nc2ccccc2N)cc1`, the GI50 was 3.12 µM and the TGI amounted to 17.1 µM.

In turn, `Cc1c2oc(=O)c(C#N)cc2c2ccccn12` came in with a TGI greater than 100 µM.

On to `COc1ccc2c(c1)[n+](=O)c(/C=C/C(=O)c1cc(OC)c(OC)c(OC)c1)c(C)n2[O-]`, for which the GI50 was 35.4 µM and the TGI was greater than 100 µM.

Consider `C=C1c2nc3ccccc3n2C=C(c2ccccc2)N1c1ccc(C)cc1`, for which the TGI is greater than 100 µM.

`C/C(CC(O)(C(F)(F)F)C(F)(F)F)=N\O` registered a TGI greater than 10 µM.

Regarding `Cn1cnnc1Sc1c([N+](=O)[O-])nc(-c2ccc([N+](=O)[O-])cc2)n1C`, the TGI is greater than 100 µM.

`Cc1cc(NS(=O)(=O)c2ccc(Nc3c4ccccc4nc4c(C(=O)NC(CO)(CO)CO)cccc34)cc2)no1` showed a TGI greater than 100 µM.

With `CN(C)CCN=c1nc2c(c(N)n1-c1ccccc1)c(=S)n(-c1ccccc1)c(=S)n2-c1ccccc1`, the GI50 is 4.55 µM and the TGI amounted to 18.4 µM.

Turning to `CC(C)(C1=NC(C(C)(C)C)CO1)C1=N[C@@H](C(C)(C)C)CO1` (stereo partly specified), the TGI is greater than 100 µM.

In the case of `CCS(=O)(=O)c1cccc(-c2cc(C(=O)NC3CCN(C)CC3)c(C)c3[nH]c4ncc(C)cc4c23)c1`, the GI50 is 1.23 µM and 1.14 µM; the TGI was > 9.05 µM and 5.09 µM.

For the compound `COc1c(OC2OC(C)C(O)C(O)C2O)c(OC)c2oc(-c3ccc(O)cc3)cc(=O)c2c1O` (stereo unspecified), the GI50 was 42.8 µM and the TGI was greater than 100 µM.

As for `C=C1C(=O)OC2C[C@@]3(C)CCCC(=C)C3CC12` (stereo partly specified), the TGI worked out at 28.5 µM.

`COc1ccc(NCn2nc(CCCCCCCCc3nn(CNc4ccc(OC)cc4)c(=S)o3)oc2=S)cc1` came in with a TGI greater than 100 µM.

For `COc1ccc(Cn2c(=O)c(OS(=O)(=O)C(F)(F)F)c(C)c3cc4ccccc4cc32)cc1`, the TGI was greater than 100 µM.

Take `COC(=O)c1ccc(C)cc1C1CN=NC12Cc1cccc(C)c1C2=O` (stereo unspecified): the TGI is greater than 100 µM.

Turning to `COc1ccc(N=C(C)C(C)=Nc2ccc(OC)cc2)cc1`, the TGI was greater than 100 µM.

`CCOC(=O)c1sc(NC(=O)COc2ccc(/C=C3\CCc4cc(OC)ccc4C3=O)cc2)nc1C`: the GI50 is 12.7 µM and the TGI turned out to be 25.8 µM.

Consider `C/C(=N\NC(=S)N1CCCC1)c1ccccn1`, for which the GI50 is less than 0.01 µM and the TGI turned out to be 11.2 µM.

In turn, `CN1C2C=CC(=O)C1C(C#N)C2` (stereo unspecified) displayed a TGI greater than 100 µM.

As to `C/C(=N/NC(N)=S)C(CN1CCOCC1)C(C1=C(O)c2ccccc2OC1)c1ccccc1` (stereo unspecified), the TGI is greater than 100 µM.

With `CC12CC(c3ccccc3O1)C(C(=O)Nc1nccs1)C(=O)N2` (stereo unspecified), the TGI is greater than 100 µM.

`O=Cn1c2ccccc2c2ccccc21` gave a TGI greater than 100 µM.

As for `CCOC(=O)/C=C(/C(=O)OCC)n1cc(C)c(=O)n(Cc2cn(CCCCOC(C)=O)nn2)c1=O`, the TGI is greater than 100 µM.

On to `O=C1C=C(NCCc2ccccc2)c2ccccc2C1=O`, for which the TGI came out at 3 µM.

Compound `NC(=S)c1cccc(C2Nc3ccccc3O2)c1` (stereo unspecified) yielded a TGI greater than 100 µM.

In the case of `COc1cccc(C2C(C#N)=C(N)Oc3cc(OCCCCCC[P+](c4ccccc4)(c4ccccc4)c4ccccc4)ccc32)c1` (stereo unspecified), the GI50 is 1.55 µM and the TGI was 2.97 µM.

As to `Cc1cc(C)nc(NC(=O)COc2ccc(Cl)cc2)c1`, the TGI is greater than 100 µM.

`O=C1CC(c2cccc([N+](=O)[O-])c2)C2(C(=O)NC(=S)NC2=O)C(c2cccc([N+](=O)[O-])c2)C1` (stereo unspecified) yielded a TGI of 42.3 µM.

`CN(Cc1cnc2nc(N)nc(N)c2n1)c1c(Cl)cc(C(=O)NC(CCC(=O)O)C(=O)O)cc1Cl` (stereo unspecified): the GI50 is 0.0319 µM and the TGI is greater than 100 µM.

The compound `BrCc1ccc2ccc3ccc(CBr)nc3c2n1` displayed a TGI of 22.2 µM.

Compound `COc1ccc(-c2csc3c2[N+]2(C)C=CC=C2C3N2CCCC2)cc1` (stereo unspecified) came in with a TGI greater than 100 µM.

For the compound `COc1ccc(-c2cn3ccnc3c(-c3ccc(Cl)cc3)n2)cc1`, the GI50 is 13 µM and the TGI is greater than 100 µM.

`C[C@H](CCc1nc(C#N)c(N)o1)[C@H]1CC[C@H]2[C@@H]3CCC4C[C@@H](O)CC[C@]4(C)[C@H]3C[C@@H](O)[C@]12C` (stereo partly specified) came in with a TGI of 31.7 µM.

`CC1(C)Cc2ccccc2C(C)(Cl)C(=O)N1` (stereo unspecified) registered a TGI greater than 10 µM.

In the case of `OC[C@H]1N[C@H](CO)[C@@H](O)[C@H]1O`, the TGI was greater than 100 µM.

As for `COC(=O)CCCc1nc2ccccc2nc1N=Nc1ccccc1`, the TGI was greater than 100 µM.

The compound `NCCOCCOCC(=O)O` registered a TGI greater than 100 µM.

In the case of `O=S1(=O)N=C(SCc2c[nH]c3ccccc23)N(c2ccccc2)c2ccncc21`, the TGI was greater than 100 µM.

As to `O=C1OC2(CCCCC2)C(Oc2ccc(Cl)cc2)=C1F`, the TGI is greater than 100 µM.

With `COC(=O)N[C@@H](C)CNc1nccc(-c2cn(C(C)C)nc2-c2cc(Cl)cc(NS(C)(=O)=O)c2F)n1`, the GI50 is greater than 100 µM and the TGI was greater than 100 µM.

With `COc1ccc(C(=O)Cn2c(C(=O)c3ccc(Cl)cc3)nc(-c3ccccc3)c2-c2ccccc2)cc1`, the GI50 is greater than 100 µM and the TGI is greater than 100 µM.

For the compound `CC(C)(C)OC(=O)NCCCCCCCCCCCCn1c2c(c3ccccc3c1=O)C(=O)c1ccccc1-2`, the GI50 is greater than 100 µM and the TGI was greater than 100 µM.

For the compound `O=S1(=O)CCC2=CC(C(F)(F)F)=CC(C(F)(F)F)=CN21`, the TGI stood at 6.83 µM.

Regarding `COc1ccc(C2=NNC(c3sc(Cl)nc3Cl)C2)cc1` (stereo unspecified), the GI50 was 12.4 µM and the TGI is 25.7 µM.

As to `O=C(NCCCN1CCN(CCCNC(=O)Nc2cc(Cl)ccc2Cl)CC1)Nc1cc(Cl)ccc1Cl`, the TGI is greater than 100 µM.

Take `COC1(C)CCC(OS(C)(=O)=O)CO1` (stereo unspecified): the TGI was greater than 100 µM.

As to `CCOC(=O)C(Cc1cc(OC)c(CC(C(=O)OCC)C(=O)OCC)cc1OC)C(=O)OCC`, the TGI is greater than 100 µM.

The compound `c1ccc(N2CCN(CCN3CCc4c([nH]c5ccccc45)C3c3cccnc3)CC2)cc1` (stereo unspecified) displayed a TGI greater than 100 µM.

The compound `O=C(O)C1CC2C=CCC(C2)C1` (stereo unspecified) yielded a TGI greater than 100 µM.

`COC1CCC(OC)C(c2nc3sccn3c2/C=N/N=C(N)N)C1` (stereo unspecified): the GI50 was 8.23 µM and the TGI came to 83.1 µM.

`CNCC(SC)c1ccc(O)c(O)c1` (stereo unspecified) showed a TGI greater than 100 µM.

In the case of `CCOC(=N)CC(=O)Nc1ccccc1CC`, the TGI is greater than 100 µM.

In turn, `CCOC1=C/C(=N\Nc2ccc([N+](=O)[O-])cc2)CCC1` returned a TGI greater than 100 µM.

In the case of `CNC(=O)NCCCCC(NC(C)=O)C(=O)NCc1ccccc1` (stereo unspecified), the TGI was greater than 100 µM.

For `Oc1ccc(Nc2nc(Cl)c3[nH]cnc3n2)cc1`, the TGI was greater than 100 µM.

On to `COc1cc(C=NCC(=O)CSC(c2ccccc2)c2ccccc2)ccc1O`, for which the GI50 was 11.5 µM and the TGI was 29.9 µM.

For the compound `Cc1c2cc[n+](C)cc2c(C)c2c1[nH]c1ccc(OCC(F)(F)F)cc12`, the TGI is greater than 100 µM.

Compound `CN1COCN=C1NC#N` returned a TGI greater than 100 µM.

`Cn1cc(-c2csc(-c3ccc(Cl)cc3)n2)c2cccnc21`: the GI50 is 13.2 µM and the TGI came out at 37.7 µM.

The record behind these values is PubChem BioAssay (NCI).
